Reference: paper PMC4336329 (PLoS ONE, 2015)
Screen size: about 310,000 compounds; about 14,000 (4.5%) showed an effect of 50% or more. The effect is printed as a negative number. The list shows a part of the results.

Molecular target: human ether-à-go-go-related gene (hERG) potassium channel (human, UniProt Q12809)
Assay: primary screen, population patch clamp on CHO cells stably expressing hERG
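Also: peak tail current of the secondary pulse compared with the same well before compound.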

Chain of human ether-à-go-go-related gene (hERG) potassium channel (Q12809 whole entry, looked up): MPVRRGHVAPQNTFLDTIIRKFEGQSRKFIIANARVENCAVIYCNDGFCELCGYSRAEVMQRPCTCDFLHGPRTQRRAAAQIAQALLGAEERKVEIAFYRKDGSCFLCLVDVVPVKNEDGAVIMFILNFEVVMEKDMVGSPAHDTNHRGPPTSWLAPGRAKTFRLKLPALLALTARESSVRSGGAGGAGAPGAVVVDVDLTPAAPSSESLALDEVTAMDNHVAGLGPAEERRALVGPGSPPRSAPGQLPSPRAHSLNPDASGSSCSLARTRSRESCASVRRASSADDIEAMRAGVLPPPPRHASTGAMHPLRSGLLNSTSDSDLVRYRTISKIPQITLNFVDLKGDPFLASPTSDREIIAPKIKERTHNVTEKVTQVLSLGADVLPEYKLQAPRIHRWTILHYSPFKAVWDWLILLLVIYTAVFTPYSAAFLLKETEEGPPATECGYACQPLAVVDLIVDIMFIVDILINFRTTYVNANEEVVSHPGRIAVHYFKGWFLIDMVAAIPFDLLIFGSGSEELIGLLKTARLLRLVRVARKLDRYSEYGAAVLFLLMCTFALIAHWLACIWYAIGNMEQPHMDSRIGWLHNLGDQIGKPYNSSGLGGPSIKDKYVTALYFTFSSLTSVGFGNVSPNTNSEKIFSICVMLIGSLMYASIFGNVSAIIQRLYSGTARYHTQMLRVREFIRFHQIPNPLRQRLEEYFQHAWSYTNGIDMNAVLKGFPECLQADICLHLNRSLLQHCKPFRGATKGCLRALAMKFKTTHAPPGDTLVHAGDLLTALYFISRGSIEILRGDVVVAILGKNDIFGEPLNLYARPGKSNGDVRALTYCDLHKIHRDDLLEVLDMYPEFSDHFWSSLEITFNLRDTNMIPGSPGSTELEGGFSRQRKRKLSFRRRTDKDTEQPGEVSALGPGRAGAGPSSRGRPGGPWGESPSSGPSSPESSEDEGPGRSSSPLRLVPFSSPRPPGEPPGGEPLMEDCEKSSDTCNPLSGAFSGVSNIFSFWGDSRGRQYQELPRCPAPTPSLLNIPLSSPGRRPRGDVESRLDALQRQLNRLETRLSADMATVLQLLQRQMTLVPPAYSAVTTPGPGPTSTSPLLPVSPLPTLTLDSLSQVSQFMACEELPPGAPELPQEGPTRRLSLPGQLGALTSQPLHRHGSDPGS

| SMILES | hERG current change (%, negative = inhibition) at 10uM [%] |
| --- | --- |
| NS(=O)(=O)c1ccc(NC(=O)COC(=O)Cc2ccc(Cl)cc2)cc1 | -0.0141 |
| COc1ccc(CCn2nnnc2C(C(C)C)N2CCN(c3ncccn3)CC2)cc1OC (stereo not drawn) | -5.93 |
| CCOC(=O)N1CCC(NCc2c(C(=O)N(C)Cc3ccccc3)nc3ccccn23)CC1 | -43.3 |
| CCOc1ccccc1N(C)C(=O)Cn1ncc2c([nH]c3ccccc32)c1=O | -2.61 |
| CN(CC(=O)Nc1ccccc1Br)C(=O)c1cccc(S(=O)(=O)NCc2ccccc2)c1 | -17.6 |
| CN(C)c1ccc(CNc2ncn[nH]2)cc1 | 17.7 |
| CCN=C(NCC)SC1CC(=O)N(c2ccccc2)C1=O (stereo not drawn) | -3.64 |
| COc1ccc(CNC(=O)N2CCN(c3cccc(Cl)c3)CC2)cc1OC | -18.5 |
| COc1ccc(C(C)=O)cc1COC(=O)CCNS(=O)(=O)c1ccc(C(C)=O)cc1 | -45.9 |
| Cc1ccn2cc(C(=O)Nc3ccc4c(c3)OCCO4)nc2c1 | -8.61 |
| N#Cc1c(-c2ccc(F)cc2)cc(-c2cccs2)nc1SCC(=O)O | 24.9 |
| COc1ccc(-c2n[nH]c(=S)n2N)c(OC)c1 | 20.8 |
| Cc1cccc(NC(=O)Cn2nnc(C(=O)NCc3ccco3)c2N)c1 | 5.37 |
| COc1ccc2c(c1)OC[C@H]1[C@H]2N2C(=O)CN(CC3CCCO3)C(=O)[C@@]2(C)[C@H]1c1ccccc1 (stereo partly drawn) | -1.62 |
| Cc1cc(C)c(/C=N/NC(N)=O)c(C)c1/C=N/NC(N)=O | -11 |
| CN1CCN(C(=O)c2cc([N+](=O)[O-])ccc2Cl)CC1 | 16.8 |
| COC(=O)c1ccc2c(=O)n(CCCCCC(=O)N3CCN(c4ccc(F)cc4)CC3)c(=O)[nH]c2c1 | 13 |
| CCN(CC)C(=O)CSc1nc2cc3c(cc2c(=O)n1Cc1ccco1)OCO3 | -30.9 |
| OCCNc1nc2ccccc2[nH]1 | 12.8 |
| O=C(O)CNC(=O)C1COc2ccccc2O1 (stereo not drawn) | 21.7 |
| CCOc1ncccc1C(=O)N(C)CC(=O)Nc1ccccc1SC | 33 |
| CCOCc1c(C(=O)OCC(=O)Nc2ccc(C)c(S(=O)(=O)N(C)C)c2)oc2ccccc12 | -5.71 |
| Cc1[nH]n(-c2ccccc2)c(=O)c1C(c1ccc(O)c([N+](=O)[O-])c1)c1c(C)[nH]n(-c2ccccc2)c1=O | 9.91 |

| SMILES | hERG current change (%, negative = inhibition) at 10uM [%] |
| --- | --- |
| O=C(COC(=O)c1ccc(F)cc1F)NCCNC(=O)COC(=O)c1ccc(F)cc1F | 16.8 |
| ClCc1csc(N/N=C/c2cccs2)n1 | 11.8 |
| O=[N+]([O-])c1ccc(C[n+]2ccccc2)cc1.[Br-] | -6.43 |
| CCN(c1ccccc1)S(=O)(=O)c1nnc(NC(=O)C(C)C)s1 | 20.3 |
| O=C(O)c1cccc(NC(=O)c2ccccc2NC(=O)c2cccc([N+](=O)[O-])c2)c1 | 19.2 |
| COc1ccc(NCc2ccc(OC)c(Cn3ccnc3)c2)c(OC)c1 | -10.9 |
| Nc1cc[n+](CC(=O)c2ccc3c(c2)OCCO3)cc1.[Br-] | -0.154 |
| COc1cc2c(cc1NC(=O)COC(=O)C(CCSC)NC(=O)c1ccccc1Cl)oc1ccccc12 (stereo not drawn) | -2.5 |
| Cc1ccn2cc(-c3ccc(NS(=O)(=O)c4ccccc4)cc3)nc2c1 | -6.66 |
| CC1Cc2ccccc2N1C(=O)COC(=O)c1ccc(O)cc1 (stereo not drawn) | 15.3 |
| CCn1c(-c2cc3ccccc3cc2O)n[nH]c1=S | 12.5 |
| O=C(COc1ccccc1F)Nc1ccc(S(=O)(=O)N2CCCC2)cc1 | 2.77 |
| Cc1cccc(S(=O)Cc2ccc(C(=O)N3CCOCC3)o2)c1 (stereo not drawn) | 19 |
| CC(C)Cc1ccc(S(=O)(=O)N2CCCC2)cc1 | -23 |
| Cc1cccc(C(=O)NNS(=O)(=O)c2ccc(F)cc2)c1 | 8.24 |
| Cc1cccc(NC(=S)NCCc2c[nH]c3ccccc23)c1 | -4.25 |
| COc1ccccc1NC(=O)Nc1ccccc1N1CCOCC1 | -9.01 |
| CC(Oc1ccc(Br)cc1)C(=O)NCc1ccccn1 (stereo not drawn) | 12.6 |
| COc1cccc(/C=N/Nc2c(Cl)cncc2Cl)c1O | 7.09 |
| Cc1cc(-c2ccccc2)nc2[n+]1CCN2C.[Br-] | 1.36 |
| O=C1Nc2ccccc2C1Cc1ccc(OC(F)(F)F)cc1 (stereo not drawn) | 15.7 |
| C=CCn1c(CCC(O)COCCCCC)n[nH]c1=S (stereo not drawn) | 5.32 |
| FC(F)(Cl)c1nnc2ccc(Sc3ccccn3)nn12 | 11.1 |

| SMILES | hERG current change (%, negative = inhibition) at 10uM [%] |
| --- | --- |
| COc1ccc2c(c1)CC1c3c(cc4c(c3-2)OCO4)CC[N+]1(C)[O-] (stereo not drawn) | -19.2 |
| CC1(C)C2CCC1(C)C(OCCNCCOC(=O)Nc1ccccc1)C2 (stereo not drawn) | -27.5 |
| CSCCC(NC(=O)c1ccco1)C(=O)N1CCCCCCC1 (stereo not drawn) | -4.39 |
| COc1ccc(NC(=O)NNC(=O)c2cc3occc3n2C)c(OC)c1 | 3.05 |
| Cc1cc(/C=C(\C#N)C(=O)NCCc2c[nH]c3ccccc23)c(C)n1C | 3.85 |
| COc1ccc(N(CC(=O)NC2CCCCCCC2)S(=O)(=O)c2c(C)nn(C)c2C)cc1 | -19.8 |
| Cc1ccsc1C(=O)OCC(=O)c1cc2ccccc2o1 | 2.77 |
| O=C(NCC1CCCO1)c1c(O)c2cccc3c2n(c1=O)CC3 (stereo not drawn) | 10.4 |
| COC(=O)C1C(=O)CC(C)(O)C(C(=O)OC)C1/C=C/c1ccccc1 (stereo not drawn) | -15.6 |
| O=C1/C(=C/c2cccs2)COc2ccccc21 | -3.96 |
| CCCN1CCN(C(=O)c2ccc(Sc3ccc(C)cc3)c(NC(C)=O)c2)CC1 | -50.6 |
| Nc1c(NCCN2CCCCC2)c2ccccc2oc1=O | -1.41 |
| CC(=O)Nc1ccc(NC(=O)/C=C/c2ccc3c(c2)OCO3)cc1 | 13 |
| CCCCN(C)C(=O)CCC(=O)Nc1ccc2nc(N3CCOCC3)cc(C)c2c1 | -19.2 |
| COC(=O)c1ccc(-n2c(C)cc(/C=N/Nc3nc(C)cc(=O)[nH]3)c2C)cc1 | 4.79 |
| CC(=Nc1ccc2c(c1)nc(CO)n2C)C1=C(O)CC(C)(C)CC1=O | 2.09 |
| CN1CCN(CC(O)COC(c2ccccc2)c2ccccc2)CC1 (stereo not drawn) | 11.2 |
| O=C(CNc1ccc2ccccc2c1)N/N=C/c1ccc(C(=O)O)cc1 | -0.523 |
| CC12CN3CC(C)(CN(C1)C3c1ccccc1F)C2 (stereo not drawn) | 3.57 |
| CCOC(=O)/C(C#N)=C/c1cn(CCC(=O)O)nc1-c1cccc(Br)c1 | -2.28 |
| CC(=O)NCC(=O)OCc1ccc([N+](=O)[O-])cc1 | 3.26 |
| COc1ccc(Cn2cc(F)c(=O)n(CCC(C)C)c2=O)cc1[N+](=O)[O-] | -40 |
| COc1ccc(OCc2cc(C(=O)NCC3CCCCO3)no2)c(Cl)c1 (stereo not drawn) | -18.6 |

| SMILES | hERG current change (%, negative = inhibition) at 10uM [%] |
| --- | --- |
| Cn1c(SCC(=O)NNC(=O)c2ccccc2O)nnc1-c1ccccc1 | 18 |
| O=C(Nc1cccc(OC(=O)N2CCCCC2)c1)N1CCCCC1 | -1.5 |
| CCC(C)(c1nnnn1-c1c(C)cccc1C)N(N=O)c1cccc(C(F)(F)F)c1 (stereo not drawn) | -5.59 |
| CC1(c2ccc(OC(F)F)cc2)NC(=O)N(CC(=O)N2c3ccccc3NC(=O)C2(C)C)C1=O (stereo not drawn) | -6.78 |
| COC(=O)c1cc(-c2ccc(Cl)cc2Cl)n[nH]1 | 14.1 |
| CCC(CC)=C(C#N)C(=O)NC1CCCCC1 | 15.5 |
| CCOc1ccc(S(=O)(=O)Nc2c(C)n(C)n(-c3ccccc3)c2=O)cc1 | 7.86 |
| CN(C)S(=O)(=O)c1cccc(NC(=S)N/N=C/c2ccco2)c1 | -32.1 |
| O=C(Nc1ccccc1)Nc1ccc(-n2ccc(C(F)(F)F)n2)cc1 | 3.19 |
| Cc1ccc(OCCn2cnc3ccccc3c2=O)c([N+](=O)[O-])c1.O=C(O)C(=O)O | 7.63 |
| COc1ccc(C(=O)CSc2nnc(COc3ccc(C#N)cc3)n2-c2ccccc2)cc1 | -6.34 |
| C=CCNC(=O)CSCc1ccc(Br)cc1 | 6.17 |
| CCS(=O)(=O)Nc1ccc(NC(C)=O)cc1 | -34 |
| COc1ccc(/C=N/NC(=O)CCC(=O)Nc2ccc(Br)cc2)c(OC)c1 | 5.6 |
| NC(=O)c1cnn2c(-c3ccc(Cl)cc3Cl)ccnc12 | 13.3 |
| C#CCn1c(-c2ccccc2)ccc(C#N)c1=O | 15.9 |
| CCc1nnc(NC(=O)Nc2ccccc2OC)s1 | 8.57 |
| CCCC(=O)N1CCCC(c2nc(-c3cccc(OC)c3)no2)C1 (stereo not drawn) | 22.9 |
| Cc1ccc(C)c(-n2c(C)cc(/C=N/NC(=O)c3c(C)nc4cc(C)ccn34)c2C)c1 | -0.122 |
| COc1cccc(OC)c1C(=O)OCC(=O)NC(=O)NCc1ccccc1 | -18.5 |
| CN1CCN(S(=O)(=O)c2ccc(N)cc2)CC1 | -4.87 |
